Laboratory results reported in US20200270321A1 (Hoffmann-La Roche, published 2020).

B1: Monovalent FAP(4B9)-targeted single chain 4-1BB ligand trimer-containing Fc (kih) fusion antigen binding molecule (Compound S3) (Fc fusion)
chain: [left out - about 200 residues]GGGGSGGGGSREGPELSPDDPAGLLDLRQGMFAQLVAQNVLLIDGPLSWYSDPGLAGVSLTGGLSYKEDTKELVVAKAGVYYVFFQLELRRVVAGEGSGSVSLALHLQPLRSAAGAAALALTVDLPPASSEARNSAFGFQGRLLHLSAGQRLGVHLHTEARARHAWQLTQGATVLGLFRVTPEIPAGLPSPRSEGGGGSGGGGSREGPELSPDDPAGLLDLRQGMFAQLVAQNVLLIDGPLSWYSDPGLAGVSLTGGLSYKEDTKELVVAKAGVYYVFFQLELRRVVAGEGSGSVSLALHLQPLRSAAGAAALALTVDLPPASSEARNSAFGFQGRLLHLSAGQRLGVHLHTEARARHAWQLTQGATVLGLFRVTPEIPAGLPSPRSEGSPGSSSSGS[left out - human IgG1 Fc with changes]
heavy: EVQLLESGGGLVQPGGSLRLSCAASGFTFSSYAMSWVRQAPGKGLEWVSAIIGSGASTYYADSVKGRFTISRDNSKNTLYLQMNSLRAEDTAVYYCAKGWFGGFNYWGQGTLVTVSSASTKGPSVFPLAPSSKSTSGGTAALGCLVKDYFPEPVTVSWNSGALTSGVHTFPAVLQSSGLYSLSSVVTVPSSSLGTQTYICNVNHKPSNTKVDKKVEPKSCDKTHTCPPCPAPEAAGGPSVFLFPPKPKDTLMISRTPEVTCVVVDVSHEDPEVKFNWYVDGVEVHNAKTKPREEQYNSTYRVVSVLTVLHQDWLNGKEYKCKVSNKALGAPIEKTISKAKGQPREPQVCTLPPSRDELTKNQVSLSCAVKGFYPSDIAVEWESNGQPENNYKTTPPVLDSDGSFFLVSKLTVDKSRWQQGNVFSCSVMHEALHNHYTQKSLSLSPGK
light: EIVLTQSPGTLSLSPGERATLSCRASQSVTSSYLAWYQQKPGQAPRLLINVGSRRATGIPDRFSGSGSGTDFTLTISRLEPEDFAVYYCQQGIMLPPTFGQGTKVEIKRTVAAPSVFIFPPSDEQLKSGTASVVCLLNNFYPREAKVQWKVDNALQSGNSQESVTEQDSKDSTYSLSSTLTLSKADYEKHKVYACEVTHQGLSSPVTKSFNRGEC
B2: Bivalent DP47-containing single chain 4-1BB ligand trimer-containing Fc (kih) fusion antigen binding molecule (Control 2) (Fc fusion)
heavy 1: [left out - about 100 residues]GSGFDYWGQGTLVTVSSASTKGPSVFPLAPSSKSTSGGTAALGCLVKDYFPEPVTVSWNSGALTSGVHTFPAVLQSSGLYSLSSVVTVPSSSLGTQTYICNVNHKPSNTKVDKKVEPKSCDKTHTCPPCPAPEAAGGPSVFLFPPKPKDTLMISRTPEVTCVVVDVSHEDPEVKFNWYVDGVEVHNAKTKPREEQYNSTYRVVSVLTVLHQDWLNGKEYKCKVSNKALGAPIEKTISKAKGQPREPQVCTLPPSRDELTKNQVSLSCAVKGFYPSDIAVEWESNGQPENNYKTTPPVLDSDGSFFLVSKLTVDKSRWQQGNVFSCSVMHEALHNHYTQKSLSLSPGK
heavy 2: [left out - about 100 residues][left out - about 120 residues][left out - human IgG1 Fc with changes]GGGGSGGGGSREGPELSPDDPAGLLDLRQGMFAQLVAQNVLLIDGPLSWYSDPGLAGVSLTGGLSYKEDTKELVVAKAGVYYVFFQLELRRVVAGEGSGSVSLALHLQPLRSAAGAAALALTVDLPPASSEARNSAFGFQGRLLHLSAGQRLGVHLHTEARARHAWQLTQGATVLGLFRVTPEIPAGLPSPRSEGGGGSGGGGSREGPELSPDDPAGLLDLRQGMFAQLVAQNVLLIDGPLSWYSDPGLAGVSLTGGLSYKEDTKELVVAKAGVYYVFFQLELRRVVAGEGSGSVSLALHLQPLRSAAGAAALALTVDLPPASSEARNSAFGFQGRLLHLSAGQRLGVHLHTEARARHAWQLTQGATVLGLFRVTPEIPAGLPSPRSEGGGGSGGGGSREGPELSPDDPAGLLDLRQGMFAQLVAQNVLLIDGPLSWYSDPGLAGVSLTGGLSYKEDTKELVVAKAGVYYVFFQLELRRVVAGEGSGSVSLALHLQPLRSAAGAAALALTVDLPPASSEARNSAFGFQGRLLHLSAGQRLGVHLHTEARARHAWQLTQGATVLGLFRVTPEIPAGLPSPRSE
light: [left out - about 100 residues][left out - about 100 residues]
notes: Untargeted bivalent control; also called bivalent untargeted trimeric 4-1BB single chain ligand Fc fusion
B3: Bivalent FAP(4B9)-targeted single chain 4-1BB ligand trimer-containing Fc (kih) fusion antigen binding molecule (Compound S2) (Fc fusion)
heavy 1: B1 heavy
heavy 2: EVQLLESGGGLVQPGGSLRLSCAASGFTFSSYAMSWVRQAPGKGLEWVSAIIGSGASTYYADSVKGRFTISRDNSKNTLYLQMNSLRAEDTAVYYCAKGWFGGFNYWGQGTLVTVSSASTKGPSVFPLAPSSKSTSGGTAALGCLVKDYFPEPVTVSWNSGALTSGVHTFPAVLQSSGLYSLSSVVTVPSSSLGTQTYICNVNHKPSNTKVDKKV[left out - human IgG1 Fc with changes]GGGGSGGGGSREGPELSPDDPAGLLDLRQGMFAQLVAQNVLLIDGPLSWYSDPGLAGVSLTGGLSYKEDTKELVVAKAGVYYVFFQLELRRVVAGEGSGSVSLALHLQPLRSAAGAAALALTVDLPPASSEARNSAFGFQGRLLHLSAGQRLGVHLHTEARARHAWQLTQGATVLGLFRVTPEIPAGLPSPRSEGGGGSGGGGSREGPELSPDDPAGLLDLRQGMFAQLVAQNVLLIDGPLSWYSDPGLAGVSLTGGLSYKEDTKELVVAKAGVYYVFFQLELRRVVAGEGSGSVSLALHLQPLRSAAGAAALALTVDLPPASSEARNSAFGFQGRLLHLSAGQRLGVHLHTEARARHAWQLTQGATVLGLFRVTPEIPAGLPSPRSEGGGGSGGGGSREGPELSPDDPAGLLDLRQGMFAQLVAQNVLLIDGPLSWYSDPGLAGVSLTGGLSYKEDTKELVVAKAGVYYVFFQLELRRVVAGEGSGSVSLALHLQPLRSAAGAAALALTVDLPPASSEARNSAFGFQGRLLHLSAGQRLGVHLHTEARARHAWQLTQGATVLGLFRVTPEIPAGLPSPRSE
light: B1 light
notes: IgG1 P329G LALA kih
B4: Bivalent CEA(sm9b)-targeted single chain 4-1BB ligand trimer-containing Fc (kih) fusion antigen binding molecule (Compound S4) (Fc fusion)
heavy 1: QVKLEQSGAEVVKPGASVKLSCKASGFNIKDSYMHWLRQGPGQCLEWIGWIDPENGDTEYAPKFQGKATFTTDTSANTAYLGLSSLRPEDTAVYYCNEGTPTGPYYFDYWGQGTLVTVSSASTKGPSVFPLAPSSKSTSGGTAALGCLVKDYFPEPVTVSWNSGALTSGVHTFPAVLQSSGLYSLSSVVTVPSSSLGTQTYICNVNHKPSNTKVDKKVEPKSCDKTHTCPPCPAPEAAGGPSVFLFPPKPKDTLMISRTPEVTCVVVDVSHEDPEVKFNWYVDGVEVHNAKTKPREEQYNSTYRVVSVLTVLHQDWLNGKEYKCKVSNKALGAPIEKTISKAKGQPREPQVCTLPPSRDELTKNQVSLSCAVKGFYPSDIAVEWESNGQPENNYKTTPPVLDSDGSFFLVSKLTVDKSRWQQGNVFSCSVMHEALHNHYTQKSLSLSPGK
heavy 2: QVKLEQSGAEVVKPGASVKLSCKASGFNIKDSYMHWLRQGPGQCLEWIGWIDPENGDTEYAPKFQGKATFTTDTSANTAYLGLSSLRPEDTAVYYCNEGTPTGPYYFDYWGQGTLVTVSSASTKGPSVFPLAPSSKSTSGGTAALGCLVKDYFPEPVTVSWNSGALTSGVHTFPAVLQSSGLYSLSSVVTVPSSSLGTQTYICNVNHKPSNTKVDKKV[left out - human IgG1 Fc with changes]GGGGSGGGGSREGPELSPDDPAGLLDLRQGMFAQLVAQNVLLIDGPLSWYSDPGLAGVSLTGGLSYKEDTKELVVAKAGVYYVFFQLELRRVVAGEGSGSVSLALHLQPLRSAAGAAALALTVDLPPASSEARNSAFGFQGRLLHLSAGQRLGVHLHTEARARHAWQLTQGATVLGLFRVTPEIPAGLPSPRSEGGGGSGGGGSREGPELSPDDPAGLLDLRQGMFAQLVAQNVLLIDGPLSWYSDPGLAGVSLTGGLSYKEDTKELVVAKAGVYYVFFQLELRRVVAGEGSGSVSLALHLQPLRSAAGAAALALTVDLPPASSEARNSAFGFQGRLLHLSAGQRLGVHLHTEARARHAWQLTQGATVLGLFRVTPEIPAGLPSPRSEGGGGSGGGGSREGPELSPDDPAGLLDLRQGMFAQLVAQNVLLIDGPLSWYSDPGLAGVSLTGGLSYKEDTKELVVAKAGVYYVFFQLELRRVVAGEGSGSVSLALHLQPLRSAAGAAALALTVDLPPASSEARNSAFGFQGRLLHLSAGQRLGVHLHTEARARHAWQLTQGATVLGLFRVTPEIPAGLPSPRSE
light: ENVLTQSPSSMSVSVGDRVTIACSASSSVPYMHWLQQKPGKSPKLLIYSTSNLASGVPSRFSGSGSGTDYSLTISSVQPEDAATYYCQQRSSYPLTFGCGTKLEIKRTVAAPSVFIFPPSDEQLKSGTASVVCLLNNFYPREAKVQWKVDNALQSGNSQESVTEQDSKDSTYSLSSTLTLSKADYEKHKVYACEVTHQGLSSPVTKSFNRGEC
notes: IgG1 P329G LALA kih

Key:
[1] = molecular target: T1, human fibroblast activation protein (huFAP) on cells (human, UniProt Q12884 1-760); assay: flow cytometry on MV-3 cells; PE anti-human IgG Fc-gamma F(ab')2; MFI
T1 construct: Transfected in NIH/3T3-huFAP clone 39; also called NIH/3T3-huFAP clone 39; WM266-4

[2] = molecular target: T1, human fibroblast activation protein …; assay: flow cytometry on WM-266-4 cells; PE anti-human IgG Fc-gamma F(ab')2; MFI
[3] = molecular target: T2, human 4-1BB (CD137) on cells (human, UniProt Q07011 24-255); assay: flow cytometry on activated human T cells, gate CD8+; PE anti-human IgG Fc-gamma F(ab')2; MFI baseline corrected
T2 construct: whole, on cells; also called 4-1BB+ human T cells

[4] = molecular target: T2, human 4-1BB (CD137) on cells; assay: flow cytometry on activated human T cells, gate CD4+; PE anti-human IgG Fc-gamma F(ab')2; MFI baseline corrected
[5] = molecular target: T2, human 4-1BB (CD137) on cells; assay: flow cytometry on activated human T cells, gate CD8+; PE anti-human IgG Fc-gamma F(ab')2; MFI baseline corrected; remark: listed apart in the source

Binder	EC50 (read off the curve) [1] [nM]	EC50 (read off the curve) [2] [nM]	EC50 (read off the curve) [3] [nM]	binding result [1]	EC50 (read off the curve) [4] [nM]	EC50 (read off the curve) [5] [nM]
B1	~1	~0.7	~0.1			
B2				no binding (tested: about 30 nM)	~0.7	~0.09
B3	~0.9	~0.7			~0.3	~0.07
B4					~1	~0.3
